Reference: the supplement of paper PMC8728848
Some of the results follow.

Tests used:
Experiment in all cases: glycan array binding signal (z-score within array); higher = stronger binding
Conditions in all cases: glycan notation: IUPAC condensed, linker removed
[1] = biological target: Gal(b1-4)Glc
Procedure, shortened: (§1)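 From the Consortium for Functional Glycomics database, 3228 arrays were curated, keeping only those whose protein sequence was available. Binding is given as a within-array Z-score averaged across arrays sharing a protein sequence and across linkers. Negative Z-scores can be read as non-binding.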

[2] = biological target: Gal(b1-4)Glc6S
Procedure, shortened: as §1

[3] = biological target: Gal(b1-4)GlcNAc
Procedure, shortened: as §1

[4] = biological target: Gal(b1-4)GlcNAc(a1-6)Gal(b1-4)GlcNAc
Procedure, shortened: as §1

[5] = biological target: Gal(b1-4)GlcNAc(b1-2)Man
Procedure, shortened: as §1

[6] = biological target: Gal(b1-4)GlcNAc(b1-2)Man(a1-3)Man(b1-4)GlcNAc(b1-4)GlcNAc
Procedure, shortened: as §1

[7] = biological target: Gal(b1-4)GlcNAc(b1-2)Man(a1-3)[Gal(b1-4)GlcNAc(b1-2)Man(a1-6)]Man(b1-4)GlcNAc(b1-4)GlcNAc
Procedure, shortened: as §1

[8] = biological target: Gal(b1-4)GlcNAc(b1-2)Man(a1-3)[Gal(b1-4)GlcNAc(b1-2)Man(a1-6)]Man(b1-4)GlcNAc(b1-4)[Fuc(a1-6)]GlcNAc
Procedure, shortened: as §1

[9] = biological target: Gal(b1-4)GlcNAc(b1-2)Man(a1-3)[Gal(b1-4)GlcNAc(b1-2)Man(a1-6)][Gal(b1-4)GlcNAc(b1-4)]Man(b1-4)GlcNAc(b1-4)[Fuc(a1-6)]GlcNAc
Procedure, shortened: as §1

[10] = biological target: Gal(b1-4)GlcNAc(b1-2)Man(a1-3)[Gal(b1-4)GlcNAc(b1-2)Man(a1-6)][GlcNAc(b1-4)]Man(b1-4)GlcNAc(b1-4)[Fuc(a1-6)]GlcNAc
Procedure, shortened: as §1

[11] = biological target: Gal(b1-4)GlcNAc(b1-2)Man(a1-3)[GlcNAc(b1-2)Man(a1-6)]Man(b1-4)GlcNAc(b1-4)GlcNAc
Procedure, shortened: as §1

[12] = biological target: Gal(b1-4)GlcNAc(b1-2)Man(a1-3)[GlcNAc(b1-4)][Gal(b1-4)GlcNAc(b1-2)Man(a1-6)]Man(b1-4)GlcNAc(b1-4)GlcNAc
Procedure, shortened: as §1

[13] = biological target: Gal(b1-4)GlcNAc(b1-2)Man(a1-3)[Man(a1-6)]Man(b1-4)GlcNAc(b1-4)GlcNAc
Procedure, shortened: as §1

[14] = biological target: Gal(b1-4)GlcNAc(b1-2)Man(a1-6)Man(b1-4)GlcNAc(b1-4)GlcNAc
Procedure, shortened: as §1

[15] = biological target: Gal(b1-4)GlcNAc(b1-2)Man(a1-6)[GlcNAc(b1-2)Man(a1-3)]Man(b1-4)GlcNAc(b1-4)GlcNAc
Procedure, shortened: as §1

[16] = biological target: Gal(b1-4)GlcNAc(b1-2)Man(a1-6)[Man(a1-3)]Man(b1-4)GlcNAc(b1-4)GlcNAc
Procedure, shortened: as §1

[17] = biological target: Gal(b1-4)GlcNAc(b1-2)[Gal(b1-4)GlcNAc(b1-4)]Man(a1-3)[Gal(b1-4)GlcNAc(b1-2)Man(a1-6)]Man(b1-4)GlcNAc(b1-4)GlcNAc
Procedure, shortened: as §1

[18] = biological target: Gal(b1-4)GlcNAc(b1-2)[Gal(b1-4)GlcNAc(b1-4)]Man(a1-3)[Gal(b1-4)GlcNAc(b1-2)[Gal(b1-4)GlcNAc(b1-6)]Man(a1-6)]Man(b1-4)GlcNAc(b1-4)GlcNAc
Procedure, shortened: as §1

[19] = biological target: Gal(b1-4)GlcNAc(b1-2)[Gal(b1-4)GlcNAc(b1-4)]Man(a1-3)[GlcNAc(b1-4)][Gal(b1-4)GlcNAc(b1-2)Man(a1-6)]Man(b1-4)GlcNAc(b1-4)GlcNAc
Procedure, shortened: as §1

[20] = biological target: Gal(b1-4)GlcNAc(b1-2)[Gal(b1-4)GlcNAc(b1-4)]Man(a1-3)[GlcNAc(b1-4)][Gal(b1-4)GlcNAc(b1-2)[Gal(b1-4)GlcNAc(b1-6)]Man(a1-6)]Man(b1-4)GlcNAc(b1-4)GlcNAc
Procedure, shortened: as §1

[21] = biological target: Gal(b1-4)GlcNAc(b1-2)[Gal(b1-4)GlcNAc(b1-6)]Man(a1-6)[Gal(b1-4)GlcNAc(b1-2)Man(a1-3)]Man(b1-4)GlcNAc(b1-4)GlcNAc
Procedure, shortened: as §1

[22] = biological target: Gal(b1-4)GlcNAc(b1-2)[Gal(b1-4)GlcNAc(b1-6)]Man(a1-6)[Gal(b1-4)GlcNAc(b1-2)Man(a1-3)]Man(b1-4)GlcNAc(b1-4)[Fuc(a1-6)]GlcNAc
Procedure, shortened: as §1

B1: rEtpA (Escherichia coli) (protein)
chain: MNRIYKLKFDKRRNELVVVSEITTGVGNAKATGSVEGEKSPRRGVRAMALSLLSGMMIMAHPAMSANLPTGGQIVAGSGSIQTPSGNQMNIHQNSQNMVANWNSFDIGKGNTVQFDQPSSSAVALNRVVGGGESQIMGNLKANGQVFLVNPNGVLFGEGASVSTSGFVASTRDIKNDDFMNRRYTFSGGQKAGAAIVNQGELTTNAGGYIVLAADRVSNSGTIRTPGGKTVLAASERITLQLDNGGLMSVQVTGDVVNALVENRGLVSARDGQVYLTALGRGMLMNTVLNVSGVVEASGMHRQDGNIVLDGGDSGVVHLSGTLQADNASGQGGKVVVQGKNILLDKGSNITATGGQGGGEVYVGGGWQGKDSNIRNADKVVMQGGARIDVSATQQGNGGTAVLWSDSYTNFHGQISAKGGETGGNGGRVETSSHGNLQAFGTVSASAKKGKAGNWLLDSADITIVNGSNVSKTETTQSPPHTQFAPTAAGSAVSNTSINNRLNNGTSVTILTHRTRTGTAQGGNITVNAAINKSNGSDVNLTLQAGGNITVNNSITSTEGKLNVNLSGARTSNGSITISNNANITTNGGDITVGTTNTSNRVNISINNTTLNASNGNIQLTGTGTDSGILFAGNNRLTASNIALTGNSTSGNAINLTGTATLNATNNITLTGSSTSGNAINLKGNNTLTASNITLTGESTSGNAINLTDTTGTTTLNATNNITMQGTRVQIKHSNITAGNFALNATVAGSEISNTTLTATNNINLAAKTNSASSGVYLKDARITSTNGSITANGTATANGKATHLDGNVTLNASNGRIKLTGNGHGSASGILFAGNNRLTASNIALTGNSTSGNAINLTGTATLNATNDITLTGSSTSGNAINLTGTATLNATNNITLTGSSTSGNAINLKGNNTLTASNITLTGESTSGNAINLTDTTGTTTLNATNNITMQGTRVQIKHSNITAGNFALNATVAGSEISNTTLTATNNINLAAKTNSASSGVYLKDARITSTNGSITANGTATANGKATHLDGNVTLNASNGRIKLTGNGHGSASGILFAGNNRLTASNIALTGNSTSGNAINLTGTATLNATNDITLTGSSTSGNAINLTGTATLNATNNITLTGSSTSGNAINLKGNNTLTASNITLTGESTSGNAINLTDTTGTTTLNATNNITMQGTRVQIKHSNITAGNFALNATVAGSEISNTTLTATNNINLAAKTNSASSGVYLKDARITSTNGSITANGTATANGKATHLDGNVTLNASNGRIKLTGNGHGSASGILFAGNNRLTASNIALTGNSTSGNAINLTGTATLNATNDITLTGSSTSGNAINLTGTATLNATNNITLTGSSTSGNAINLKGNNTLTASNITLTGESTSGNAINLTDTTGTTTLNATNNITMQGTRVQIKHSNITAGNFALNATVAGSEISNTTLTATNNINLAAKTNSASSGVYLKDARITSTNGSITTNGTATANGKATHLDGNVTLNASNGRIKLTGNGHGSASGILFAGNNRLTASNIALTGNSTSGNAINLTGTATLNATNDITLTGSSTSGNAINLTGTATLNATNNITLTGSSTSGNAINLKGNNTLTASNITLTGESTSGNAINLTDTTGTTTLNATNNITMQGTRVQIKHSNITAGNFALNATVAGSEISNTTLTATNNINLAAKTNSASSGVYLKDARITSTNGSITANGTAPANDNATYLDGNVTLNASNGSIKLTGNGNGSTSGILFAGNNTLTASNITLTGNSEVYWQKLGPEQKLISEEDLNSAVDHHHHHH
B1 was tested, and the “glycan array binding signal (z-score)” value [1] was -0.343, the “glycan array binding signal (z-score)” value [2] was -0.251 and the “glycan array binding signal (z-score)” value [3] was -0.255. For the same binder, the “glycan array binding signal (z-score)” value [4] was -0.439, the “glycan array binding signal (z-score)” value [5] was 0.585 and the “glycan array binding signal (z-score)” value [6] was -0.058. The “glycan array binding signal (z-score)” value [7] was -0.356, the “glycan array binding signal (z-score)” value [8] was -0.26 and the “glycan array binding signal (z-score)” value [9] was -0.392. The “glycan array binding signal (z-score)” value [10] was -0.441, the “glycan array binding signal (z-score)” value [11] was -0.408 and the “glycan array binding signal (z-score)” value [12] was -0.274. The “glycan array binding signal (z-score)” value [13] was -0.452, the “glycan array binding signal (z-score)” value [14] was -0.376 and the “glycan array binding signal (z-score)” value [15] was -0.16. The “glycan array binding signal (z-score)” value [16] was 0.021, the “glycan array binding signal (z-score)” value [17] was -0.327 and the “glycan array binding signal (z-score)” value [18] was -0.274. For the same binder, the “glycan array binding signal (z-score)” value [19] was -0.163, the “glycan array binding signal (z-score)” value [20] was -0.271 and the “glycan array binding signal (z-score)” value [21] was 0.68. The “glycan array binding signal (z-score)” value [22] was -0.222.
